# Data: PubChem BioAssay AID1345082 (National Center for Advancing Translational Sciences (NCATS), 2018)
# Values joined by “and” are separate entries in the source; they are usually repeats but may differ in a detail not shown here. Identical values can stand only once. The campaign covered roughly 94,000 compounds. About 4,000 (4.3%) were called active. Inconclusive means that the source gave no clear call. Such entries were picked first, then a sample of the others. Calls follow the shape of the dose curve; as a rule, active = well fitted inhibition curve with a large enough effect; inconclusive = small, poorly fitted or top-dose-only effect; inactive = no such curve, though single readings can be large or run the other way. Potencies of inconclusive entries are doubtful fits and often do not repeat.
# Test: Cytotoxic Profiling in NIH 3T3 Cell Line of Diverse Libraries Using Quantitative High-Throughput Screening; also: nearly all actives have a fitted effect of over 55% in size
# Settings: NIH 3T3 viability, CellTiter-Glo ATP luminescence, 48-72 h; activity change, negative = cytotoxicity: at 96.7 µM (top of the series) unless noted; series mostly up to 96.7 µM
# In short: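 Cytotoxicity was measured by CellTiter-Glo ATP luminescence after 48 or 72 h compound exposure at 37 °C. Mouse NIH 3T3 fibroblasts were seeded at 400 cells/well and dosed by 23 nL pin transfer.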
# % is scaled to controls: 0 for no effect and ±100 for the full control effect; potency is read from the fitted curve at half-maximal effect; tags tell the direction and shape of the fitted curve.
Compound,outcome,Potency,"activity change, negative = cytotoxicity"
COCCN1C(=O)CCC2(CNC(=O)Cc3c(C)noc3C)CCCC=C12 (stereo not given),inactive,,
CNC(=O)[C@H]1C[C@]2(CCCCN(C)C2=O)N(C(=O)c2ccco2)[C@H]1c1ccco1,,"inconclusive: 44.7 µM [inhibitor, partial curve]",
COc1ccccc1-c1cc(-c2cccnc2)c2cncn2c1,,"inconclusive: 17.8 µM [inhibitor, partial curve, poor fit]",
Cc1cnc(C2CCC2)n1C1CCN(C(=O)C2(c3ccccc3)CC2)CC1,,,inactive: -16.3%
O=C(CCc1ccc2c(c1)OCO2)N[C@H](c1ccccn1)C1CC(O)C1 (stereo not given in full),,,inactive: -12.7%
O=C(NC1CCCC1)N1CCN(c2nccc(Nc3ccccc3Cl)n2)CC1,,"inconclusive: 22.4 µM [inhibitor, full curve, poor fit]",
CCC1(O)CCCN(C(=O)c2cc(COc3ccccc3OC)[nH]n2)C1 (stereo not given),,,inactive: -29.5%
O=C(Cc1ccsc1)N1CCCN(c2cc(-c3ccc(Cl)cc3)[nH]n2)CC1,,"inconclusive: 44.7 µM [inhibitor, partial curve, poor fit]",
COc1ccc(CC(=O)NC2CCCN(c3cc(-c4ccc(F)cc4)[nH]n3)C2)cc1OC (stereo not given),,"inconclusive: 39.8 µM [inhibitor, partial curve]",
CCc1ncc(C(=O)N2CCC(c3cc(Cc4ccccc4)[nH]n3)CC2)cn1,,"inconclusive: 20 µM [inhibitor, full curve, poor fit]",
O=C(CCn1ccc2ccc(Cl)cc21)Nc1ccc2c(c1)C(=O)N1CCC[C@H]1C(=O)N2,,"inconclusive: 70.8 µM [inhibitor, single point]",
O=C(NCc1ccc(Cl)cc1)C1CCN(c2cc(C(F)(F)F)ncn2)CC1,,"inconclusive: 10 µM [inhibitor, full curve]",
COCCNc1c(-c2noc(C)c2C(=O)Nc2ccc(OC)nc2)cnn1C,,"inconclusive: 56.2 µM [inhibitor, partial curve, poor fit]",
COc1cccc(-c2cc(C(=O)N3CCCC3)c3cnn(C)c3n2)c1,,"inconclusive: 89.1 µM [inhibitor, partial curve, poor fit]",
O=C(CCC1CCN(S(=O)(=O)c2ccccc2)CC1)NCc1ccc(F)cc1,,"inconclusive: 44.7 µM [inhibitor, partial curve, poor fit]",
Cc1nn(-c2ccccc2)c2c1C(C1CC1)N(C1CCN(C(=O)NC3CCCC3)C1)C2=O (stereo not given),,"inconclusive: 39.8 µM [inhibitor, partial curve]",
O=C(NCc1ccc(F)cc1)N1CCCCC1c1noc(COc2ccc(F)cc2)n1 (stereo not given),,"inconclusive: 50.1 µM [inhibitor, partial curve, poor fit]",
COc1ccc2c(c1)OC[C@@H]1CN(CCC#N)C(=O)CCN(C(=O)C3CCCC3)[C@H]21,,"inconclusive: 70.8 µM [inhibitor, single point]",
CCOc1ccccc1CN1CCCCCCNC(=O)[C@@H]2CCC[C@@H]21,,"inconclusive: 70.8 µM [inhibitor, single point]",
COc1cccc(-c2ccccc2NC(=O)C2CCN(Cc3cc(F)ccc3F)CC2)c1,,"inconclusive: 44.7 µM [inhibitor, partial curve, poor fit]",

Compound,outcome,Potency,"activity change, negative = cytotoxicity"
Cc1ccc(-c2cn3c(n2)CO[C@@H](CNC2CCCC2)C3)cc1,,active: 100 µM,
O=C(NC1CCN(c2cc(-c3ccc(Cl)cc3)[nH]n2)C1)c1ccc(F)cc1F (stereo not given),,"inconclusive: 28.2 µM [inhibitor, partial curve]",
CC[C@H]1CN(C(=O)Nc2cccc(C(F)(F)F)c2)CC[C@H]1CC(=O)N[C@@H](CO)CC(C)C,,"inconclusive: 50.1 µM [inhibitor, partial curve, poor fit]",
Cc1nccn1-c1ccc(NC(=O)C2CCCN(c3ncccc3C#N)C2)cc1 (stereo not given),,"inconclusive: 25.1 µM [inhibitor, partial curve, poor fit]",
COCC1CN(C2CCC2)CC12CCN(C(=O)c1ccc(F)c(F)c1)CC2 (stereo not given),,"inconclusive: 70.8 µM [inhibitor, single point]",
Cc1cccnc1CC(C)NC(=O)c1csc2nc(-c3ccccc3Cl)cn12 (stereo not given),,"inconclusive: 56.2 µM [inhibitor, partial curve, poor fit]",
COc1ccc(-c2nc3nccc(-c4ccsc4)n3n2)c(OC)c1,,"inconclusive: 31.6 µM [inhibitor, full curve, poor fit]",
C=CCc1ccccc1OCCN(C)Cc1cc2ccc(F)cc2[nH]c1=O,,active: 35.5 µM,
CS(=O)(=O)N(Cc1cccnc1)C1CN(C(=O)c2ccc3[nH]ccc3c2)C1,inactive,,
CCn1cnnc1CC1CCN(C(=O)c2cc(-c3ccc(C)c(C)c3)nc3ccccc23)CC1,,active: 39.8 µM,
COc1cccc(C(=O)N2CCc3nc(C4CC4)nc(-c4ccc(Cl)cc4)c3C2)c1,,"inconclusive: 50.1 µM [inhibitor, partial curve, poor fit]",
COc1ccc(F)cc1-c1ccc(CN2CCCCC2C(=O)NCc2ccccc2F)cc1 (stereo not given),,"inconclusive: 25.1 µM [inhibitor, full curve]",
CCCS(=O)(=O)N1CCc2c(c(CN3CCOCC3)nn2C)C1,,,inactive: -12.7%
CN1CC(=O)N(c2ccc([N+](=O)[O-])cc2)Cc2c1ncnc2N1CCC(N2CCOCC2)CC1,,"inconclusive: 39.8 µM [inhibitor, partial curve, poor fit]",
O=C(NCCn1cccc1-c1nc(-c2ccc3c(c2)OCO3)no1)c1cccc(Cl)c1,,"inconclusive: 44.7 µM [inhibitor, partial curve, poor fit]",
O=C1CC(c2ccccc2)N(C(=O)CNC(=O)C2(c3ccccc3)CC2)CCCCCCN1 (stereo not given),,,inactive: -10.1%
CCN(C(=O)Cn1cccc1-c1nc(-c2ccc(OC)c(F)c2)no1)c1ccccc1,,"inconclusive: 31.6 µM [inhibitor, full curve]",
Cc1ccc(Nc2ccnc(N3CCC(C(=O)NCC4CCCCCC4)CC3)n2)cc1,,active: 17.8 µM,
c1ccc2c(c1)COC1(CCNC1)CN2CC1CCCCC1 (stereo not given),,active: 31.6 µM,
Cc1ccc(C(=O)N2CCC3(CC2)CC(c2cccc(C(F)(F)F)c2)=NO3)cc1,,"inconclusive: 28.2 µM [inhibitor, full curve] and inconclusive: 50.1 µM [inhibitor, partial curve, poor fit]",
